Data reported in PubChem BioAssay AID504832 (National Center for Advancing Translational Sciences (NCATS), 2011).
The whole screen tested about 310,000 compounds, of which about 18,000 (5.8%) were called active. Inconclusive results, whose numbers are uncertain, are shown with a selection of clear calls. The call rests on the fitted dose curve; in most records, active means well fitted inhibition curve with a large enough effect; inconclusive means small, poorly fitted or top-dose-only effect, or another doubt; inactive means no such curve, though single readings can be large or run the other way. No potency is given beside an inconclusive call; the fits are too rough.

Experiment: Primary qHTS for delayed death inhibitors of the malarial parasite plastid, 48 hour incubation
Conditions: P. falciparum luciferase growth in erythrocytes; series mostly up to 28.7 µM; activity change, negative = inhibition: at the top concentration
How it was run: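 A one-generation exposure of luciferase-tagged malaria parasites in RPMI 1640/Albumax erythrocyte culture, 37 C and 5% CO2. Inhibition is inferred from decreased luminescence after adding detection reagent.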
On the % scale 0 is the no-effect control and ±100 the full control effect; potency means the concentration at half of the fitted maximal effect; tags describe the fitted curve by direction and shape.

Structure (SMILES) | activity change, negative = inhibition | Potency
COc1cccc(CC2CC(=O)N(c3ccc4c(C)cc(=O)oc4c3)C2=O)c1 (stereo unspecified) | inactive: -0.362% | –
COc1cc(CC(=O)Nc2ccc3c(c2)CCC3)cc(OC)c1OC | – | inconclusive [inhibitor, partial curve, poor fit]
COc1ccccc1N(CC(=O)Nc1ccc(Br)cc1F)S(=O)(=O)c1cccs1 | – | inconclusive [inhibitor, partial curve]
CC(=O)OCC(=O)[C@@]1(O)CC[C@H]2[C@@H]3CCC4=CC(=O)C=C[C@]4(C)[C@H]3C(=O)C[C@@]21C | inactive: 0% | –
COC(=O)c1cccc(/C=N/NC(N)=S)c1O | – | inconclusive [inhibitor, full curve, poor fit]
Clc1ccc(-c2cn3cc(Br)ccc3n2)cc1Cl | inactive: 57.8% | –
CCCCCn1c(=O)c(C(=O)NCc2ccccn2)c(O)c2ccccc21 | – | inconclusive [inhibitor, single point]
CC(C(=O)NC(=O)NC1CCCCC1)N1CCN(c2ccc(O)cc2)CC1 (stereo unspecified) | – | inconclusive [inhibitor, single point]
COCCNC(=O)C(c1ccc(Cl)cc1)N(C(=O)CCC(=O)Nc1ccccn1)C1CCCC1 (stereo unspecified) | – | inconclusive [inhibitor, full curve]
Cc1cc(C)nc(SCC(=O)N/N=C/c2cccn2-c2ccc(O)cc2)n1 | – | inconclusive [inhibitor, partial curve, poor fit]
O=C(O)CC1S/C(=N\N=C2CCCCCCC2)N(c2ccccc2)C1=O (stereo unspecified) | inactive: 18.4% | –
CC(C)CCNCC(=O)NC(c1ccccc1)c1ccccc1 | – | inconclusive [inhibitor, partial curve, poor fit]
Cc1ccc(C)c2[nH]c(=O)c(C(c3nnnn3Cc3ccco3)N3CCc4ccccc4C3)cc12 (stereo unspecified) | – | active: 11.7 µM
O=C(C1=C[C@@H](c2ccc(C(F)(F)F)cc2)C[C@@H](OCCCCO)O1)N1CCN(Cc2ccccc2)CC1 | – | inconclusive [inhibitor, partial curve]
CCOc1ccc(C(=O)Nc2ccccc2N2CCN(C(=O)c3ccccc3)CC2)cc1[N+](=O)[O-] | – | active: 1.31 µM
CC(=O)n1cc(-c2ccncc2)c2ccccc21 | – | inconclusive [inhibitor, partial curve]
Cc1ccccc1C(=O)N1CCC(C(=O)Nc2ccc(S(=O)(=O)N3CCCCC3)cc2)CC1 | – | inconclusive [inhibitor, partial curve]
Cc1cccc(OCC(=O)Nc2cccc(-c3nnc(-c4ccccc4)o3)c2)c1C | – | inconclusive [inhibitor, single point]

Structure (SMILES) | activity change, negative = inhibition | Potency
Cc1cc(S(=O)(=O)Nc2ccc(C(=O)NCc3ccncc3)cc2)ccc1F | – | inconclusive [inhibitor, single point]
C=CCN(CC=C)CCOc1ccc(OC(C)C)cc1 | – | inconclusive [inhibitor, single point]
Cc1ccc(OCC(=O)Nc2cccc(S(=O)(=O)N3CCCCCC3)c2)cc1C | – | inconclusive [inhibitor, single point]
O=C(Nc1ccc(S(=O)(=O)NC2CCCC2)cc1)c1cnccn1 | inactive: 21.3% | –
CCCN1/C(=C(/C#N)C2=NS(=O)(=O)c3ccccc32)N(C)c2ccccc21 | – | inconclusive [inhibitor, single point]
O=C1CCc2cc(OCCCCc3nnnn3C3CCCCC3)ccc2N1 | – | inconclusive [inhibitor, single point]
O=C(CCN1CCCCC1)Nc1ccc(Cl)cc1C(=O)c1ccccc1 | – | inconclusive [inhibitor, partial curve, poor fit]
NNC(=O)COc1ccc(C(F)(F)F)cc1 | inactive: 1.07% | –
Clc1ccc(-n2c(SCc3nc4ccccc4[nH]3)nnc2-c2ccncc2)cc1 | inactive: 22.4% | –
O=C(Nc1ccc(C(=O)N2CCOCC2)cc1)c1cccc(Br)c1 | inactive: 6.92% | –
COc1cccc(Nc2nc(N)c([N+](=O)[O-])c(NCc3ccccc3)n2)c1 | – | active: 4.65 µM
C/C(=C\C(=S)Nc1ccccc1)Nc1ccc2ccccc2c1 | – | active: 9.28 µM
CCOC(=O)c1cccc(NC(=O)c2cc(C)nn2-c2ccccc2)c1 | inactive: 0.134% [at 0.00184 µM] | –
Cc1nc2nc(-c3ccco3)nn2c(C)c1Cl | inactive: 54.1% | –
CC(OC(=O)CNC(=O)c1ccc(Cl)c(Cl)c1)C(=O)N1CCOCC1 (stereo unspecified) | – | inconclusive [inhibitor, single point]
O=C(COC(=O)c1ccco1)Nc1nnc(-c2ccccc2)o1 | – | inconclusive [inhibitor, single point]
COC(=O)C1CCCN1C(C(=O)NC1CCCCC1)c1ccc(Cl)cc1 (stereo unspecified) | – | inconclusive [inhibitor, partial curve, poor fit]
CCn1c(COc2ccc(C)cc2)nnc1SCc1nc2ccccc2[nH]1 | – | inconclusive [inhibitor, single point]
